{"source": "the supplement of paper PMC8728848", "assay_in_all_cases": "glycan array binding signal (z-score within array); higher = stronger binding", "details_in_all_cases": "glycan notation: IUPAC condensed, linker removed", "key": {"[1]": {"target": "Gal3S(b1-3)[Fuc(a1-4)]GlcNAc(b1-3)Gal(b1-4)Glc", "how_it_was_run": "(§1)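 Arrays were curated from the Consortium for Functional Glycomics database, 3228 in total, and kept only where the protein sequence was available. Binding is expressed as a within-array Z-score. This score was averaged across arrays of the same protein sequence at different concentrations or buffers and across linkers, and negative values can be read as non-binding.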"}, "[2]": {"target": "Gal3S(b1-4)Glc", "how_it_was_run": "as §1"}, "[3]": {"target": "Gal3S(b1-4)GlcNAc", "how_it_was_run": "as §1"}, "[4]": {"target": "Gal3S(b1-4)GlcNAc(b1-3)Gal", "how_it_was_run": "as §1"}, "[5]": {"target": "Gal6S(b1-3)[Fuc(a1-4)]GlcNAc(b1-3)Gal(b1-4)Glc", "how_it_was_run": "as §1"}, "[6]": {"target": "GalNAc(a1-3)Gal(b1-4)Glc", "how_it_was_run": "as §1"}, "[7]": {"target": "GalNAc(a1-3)GalNAc", "how_it_was_run": "as §1"}, "[8]": {"target": "GalNAc(b1-4)Gal(b1-4)Glc", "how_it_was_run": "as §1"}, "[9]": {"target": "GalNAc(b1-4)Gal3S(b1-4)Glc", "how_it_was_run": "as §1"}, "[10]": {"target": "GalNAc(b1-4)[Neu5Ac(a2-6)]Gal(b1-4)Glc", "how_it_was_run": "as §1"}, "[11]": {"target": "GalNAc3S(b1-4)Gal3S(b1-4)Glc", "how_it_was_run": "as §1"}, "[12]": {"target": "Glc(a1-2)Glc", "how_it_was_run": "as §1"}, "[13]": {"target": "Glc(a1-2)Glc(a1-3)Glc(a1-3)Man(a1-2)Man(a1-2)Man(a1-3)[Man(a1-2)Man(a1-3)[Man(a1-2)Man(a1-6)]Man(a1-6)]Man(b1-4)GlcNAc", "how_it_was_run": "as §1"}, "[14]": {"target": "Glc(a1-2)Glc(a1-3)Glc(a1-3)Man(a1-2)Man(a1-2)Man(a1-3)[Man(a1-3)[Man(a1-6)]Man(a1-6)]Man(b1-4)GlcNAc", "how_it_was_run": "as §1"}, "[15]": {"target": "Glc(a1-3)Glc", "how_it_was_run": "as §1"}, "[16]": {"target": "Glc(a1-3)Glc(a1-3)Man(a1-2)Man(a1-2)Man(a1-3)[Man(a1-2)Man(a1-3)[Man(a1-2)Man(a1-6)]Man(a1-6)]Man(b1-4)GlcNAc(b1-4)GlcNAc", "how_it_was_run": "as §1"}, "[17]": {"target": "Glc(a1-3)Glc(a1-3)Man(a1-2)Man(a1-2)Man(a1-3)[Man(a1-3)[Man(a1-6)]Man(a1-6)]Man(b1-4)GlcNAc", "how_it_was_run": "as §1"}, "[18]": {"target": "Glc(a1-3)Man(a1-2)Man(a1-2)Man(a1-3)[Man(a1-2)Man(a1-3)[Man(a1-2)Man(a1-6)]Man(a1-6)]Man(b1-4)GlcNAc(b1-4)GlcNAc", "how_it_was_run": "as §1"}, "[19]": {"target": "Glc(a1-4)Glc", "how_it_was_run": "as §1"}, "[20]": {"target": "Glc(a1-4)Glc(a1-4)Glc", "how_it_was_run": "as §1"}, "[21]": {"target": "Glc(a1-4)Glc(a1-4)Glc(a1-4)Glc", "how_it_was_run": "as §1"}, "[22]": {"target": "Glc(a1-4)Glc(a1-4)Glc(a1-4)Glc(a1-4)Glc", "how_it_was_run": "as §1"}, "[23]": {"target": "Glc(a1-4)Glc(a1-4)Glc(a1-4)Glc(a1-4)Glc(a1-4)Glc", "how_it_was_run": "as §1"}, "[24]": {"target": "Glc(a1-4)Glc(a1-4)Glc(a1-4)Glc(a1-4)Glc(a1-4)Glc(a1-4)Glc", "how_it_was_run": "as §1"}, "[25]": {"target": "Glc(a1-4)Glc(a1-4)Glc(a1-4)Glc(a1-4)Glc(a1-4)Glc(a1-4)Glc(a1-4)Glc", "how_it_was_run": "as §1"}, "[26]": {"target": "Glc(a1-4)Glc(a1-4)Glc(a1-4)Glc(a1-4)Glc(a1-4)Glc(a1-4)Glc(a1-4)Glc(a1-4)Glc", "how_it_was_run": "as §1"}, "[27]": {"target": "Glc(a1-4)Glc(a1-4)Glc(a1-4)Glc(a1-4)Glc(a1-4)Glc(a1-4)Glc(a1-4)Glc(a1-4)Glc(a1-4)Glc", "how_it_was_run": "as §1"}, "[28]": {"target": "Glc(a1-4)Glc(a1-4)Glc(a1-4)Glc(a1-4)Glc(a1-4)Glc(a1-4)Glc(a1-4)Glc(a1-4)Glc(a1-4)Glc(a1-4)Glc", "how_it_was_run": "as §1"}, "[29]": {"target": "Glc(a1-4)Glc(a1-4)Glc(a1-4)Glc(a1-4)Glc(a1-4)Glc(a1-4)Glc(a1-4)Glc(a1-4)Glc(a1-4)Glc(a1-4)Glc(a1-4)Glc", "how_it_was_run": "as §1"}, "[30]": {"target": "Glc(a1-4)Glc(a1-4)Glc(a1-4)Glc(a1-4)Glc(a1-4)Glc(a1-4)Glc(a1-4)Glc(a1-4)Glc(a1-4)Glc(a1-4)Glc(a1-4)Glc(a1-4)Glc", "how_it_was_run": "as §1"}, "[31]": {"target": "Glc(a1-6)Glc", "how_it_was_run": "as §1"}, "[32]": {"target": "Glc(a1-6)Glc(a1-4)Glc(a1-4)Glc", "how_it_was_run": "as §1"}, "[33]": {"target": "Glc(a1-6)Glc(a1-6)Glc", "how_it_was_run": "as §1"}, "[34]": {"target": "Glc(a1-6)Glc(a1-6)Glc(a1-6)Glc", "how_it_was_run": "as §1"}, "[35]": {"target": "Glc(a1-6)Glc(a1-6)Glc(a1-6)Glc(a1-6)Glc", "how_it_was_run": "as §1"}, "[36]": {"target": "Glc(a1-6)Glc(a1-6)Glc(a1-6)Glc(a1-6)Glc(a1-6)Glc", "how_it_was_run": "as §1"}, "[37]": {"target": "Glc(a1-6)Glc(a1-6)Glc(a1-6)Glc(a1-6)Glc(a1-6)Glc(a1-6)Glc", "how_it_was_run": "as §1"}, "[38]": {"target": "Glc(a1-6)Glc(a1-6)Glc(a1-6)Glc(a1-6)Glc(a1-6)Glc(a1-6)Glc(a1-6)Glc", "how_it_was_run": "as §1"}, "[39]": {"target": "Glc(a1-6)Glc(a1-6)Glc(a1-6)Glc(a1-6)Glc(a1-6)Glc(a1-6)Glc(a1-6)Glc(a1-6)Glc", "how_it_was_run": "as §1"}, "[40]": {"target": "Glc(a1-6)Glc(a1-6)Glc(a1-6)Glc(a1-6)Glc(a1-6)Glc(a1-6)Glc(a1-6)Glc(a1-6)Glc(a1-6)Glc", "how_it_was_run": "as §1"}, "[41]": {"target": "Glc(a1-6)Glc(a1-6)Glc(a1-6)Glc(a1-6)Glc(a1-6)Glc(a1-6)Glc(a1-6)Glc(a1-6)Glc(a1-6)Glc(a1-6)Glc", "how_it_was_run": "as §1"}, "[42]": {"target": "Glc(a1-6)Glc(a1-6)Glc(a1-6)Glc(a1-6)Glc(a1-6)Glc(a1-6)Glc(a1-6)Glc(a1-6)Glc(a1-6)Glc(a1-6)Glc(a1-6)Glc", "how_it_was_run": "as §1"}, "[43]": {"target": "Glc(a1-6)Glc(a1-6)Glc(a1-6)Glc(a1-6)Glc(a1-6)Glc(a1-6)Glc(a1-6)Glc(a1-6)Glc(a1-6)Glc(a1-6)Glc(a1-6)Glc(a1-6)Glc", "how_it_was_run": "as §1"}, "[44]": {"target": "Glc(b1-2)Glc", "how_it_was_run": "as §1"}, "[45]": {"target": "Glc(b1-3)Glc", "how_it_was_run": "as §1"}}, "note": "The list shows a part of the results."}
{"binder": "ZG16p (Homo sapiens), O60844 (protein) ARSSSYSGEYGGGGGKRFSHSGNQLDGPITALRVRVNTYYIVGLQVRYGKVWSDYVGGRNGDLEEIFLHPGESVIQVSGKYKWYLKKLLFVTDKGRYLSFGKDSGTSFNAVPLHPNTVLRFISGRSGSLIDAIGLHWDVYPSSCSRC", "values": [{"measurement": "glycan array binding signal (z-score)", "setting": "[1]", "value": -0.328}, {"measurement": "glycan array binding signal (z-score)", "setting": "[2]", "value": -0.328}, {"measurement": "glycan array binding signal (z-score)", "setting": "[3]", "value": -0.296}, {"measurement": "glycan array binding signal (z-score)", "setting": "[4]", "value": -0.195}, {"measurement": "glycan array binding signal (z-score)", "setting": "[5]", "value": -0.328}, {"measurement": "glycan array binding signal (z-score)", "setting": "[6]", "value": -0.328}, {"measurement": "glycan array binding signal (z-score)", "setting": "[7]", "value": -0.283}, {"measurement": "glycan array binding signal (z-score)", "setting": "[8]", "value": -0.21}, {"measurement": "glycan array binding signal (z-score)", "setting": "[9]", "value": -0.328}, {"measurement": "glycan array binding signal (z-score)", "setting": "[10]", "value": -0.328}, {"measurement": "glycan array binding signal (z-score)", "setting": "[11]", "value": -0.314}, {"measurement": "glycan array binding signal (z-score)", "setting": "[12]", "value": 1.24}, {"measurement": "glycan array binding signal (z-score)", "setting": "[13]", "value": -0.512}, {"measurement": "glycan array binding signal (z-score)", "setting": "[14]", "value": 0.627}, {"measurement": "glycan array binding signal (z-score)", "setting": "[15]", "value": 2.88}, {"measurement": "glycan array binding signal (z-score)", "setting": "[16]", "value": 0.445}, {"measurement": "glycan array binding signal (z-score)", "setting": "[17]", "value": 0.643}, {"measurement": "glycan array binding signal (z-score)", "setting": "[18]", "value": -0.195}, {"measurement": "glycan array binding signal (z-score)", "setting": "[19]", "value": 0.71}, {"measurement": "glycan array binding signal (z-score)", "setting": "[20]", "value": 0.576}, {"measurement": "glycan array binding signal (z-score)", "setting": "[21]", "value": 0.465}, {"measurement": "glycan array binding signal (z-score)", "setting": "[22]", "value": 0.64}, {"measurement": "glycan array binding signal (z-score)", "setting": "[23]", "value": 1.47}, {"measurement": "glycan array binding signal (z-score)", "setting": "[24]", "value": 1.55}, {"measurement": "glycan array binding signal (z-score)", "setting": "[25]", "value": 1.93}, {"measurement": "glycan array binding signal (z-score)", "setting": "[26]", "value": 1.78}, {"measurement": "glycan array binding signal (z-score)", "setting": "[27]", "value": 1.95}, {"measurement": "glycan array binding signal (z-score)", "setting": "[28]", "value": 0.999}, {"measurement": "glycan array binding signal (z-score)", "setting": "[29]", "value": 4.4}, {"measurement": "glycan array binding signal (z-score)", "setting": "[30]", "value": 2.82}, {"measurement": "glycan array binding signal (z-score)", "setting": "[31]", "value": 1.29}, {"measurement": "glycan array binding signal (z-score)", "setting": "[32]", "value": -0.027}, {"measurement": "glycan array binding signal (z-score)", "setting": "[33]", "value": 0.475}, {"measurement": "glycan array binding signal (z-score)", "setting": "[34]", "value": 0.435}, {"measurement": "glycan array binding signal (z-score)", "setting": "[35]", "value": 0.189}, {"measurement": "glycan array binding signal (z-score)", "setting": "[36]", "value": -0.061}, {"measurement": "glycan array binding signal (z-score)", "setting": "[37]", "value": -0.184}, {"measurement": "glycan array binding signal (z-score)", "setting": "[38]", "value": -0.142}, {"measurement": "glycan array binding signal (z-score)", "setting": "[39]", "value": -0.055}, {"measurement": "glycan array binding signal (z-score)", "setting": "[40]", "value": 0.078}, {"measurement": "glycan array binding signal (z-score)", "setting": "[41]", "value": 0.337}, {"measurement": "glycan array binding signal (z-score)", "setting": "[42]", "value": -0.065}, {"measurement": "glycan array binding signal (z-score)", "setting": "[43]", "value": -0.118}, {"measurement": "glycan array binding signal (z-score)", "setting": "[44]", "value": -0.052}, {"measurement": "glycan array binding signal (z-score)", "setting": "[45]", "value": 0.748}]}
